Test results from PubChem BioAssay AID485281 (National Center for Advancing Translational Sciences (NCATS), 2010).
The whole screen tested about 350,000 compounds, of which about 260 (0.074%) were called active. Inconclusive results, whose numbers are uncertain, are shown with a selection of clear calls. Calls follow the shape of the dose curve; as a rule, active = well fitted inhibition curve with a large enough effect; inconclusive = small, poorly fitted or top-dose-only effect; inactive = no such curve, though single readings can be large or run the other way. A potency beside an inconclusive call is a rough fit, not a confirmed value.

molecular target: Ferritin light chain (Equus caballus) (UniProt P02791); assay: qHTS Assay for Identification of Novel General Anesthetics; conditions: apoferritin/1-aminoanthracene competitive binding, fluorescence; series mostly up to 77.5 µM; also: nearly all actives have a fitted effect of over 20% in size
Sequence of UniProt P02791 (P02791 whole entry, looked up): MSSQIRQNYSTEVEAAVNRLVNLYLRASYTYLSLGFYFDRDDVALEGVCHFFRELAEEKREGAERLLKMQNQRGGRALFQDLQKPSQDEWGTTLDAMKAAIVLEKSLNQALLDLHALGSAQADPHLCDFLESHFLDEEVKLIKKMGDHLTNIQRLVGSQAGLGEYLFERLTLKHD
How it was run: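 Concentration-response curves derived by four-parameter Hill fitting of normalized fluorescence, where compounds displaced 1-AMA from 10 uM horse apoferritin following a brief 10 min room-temperature incubation; propofol titration acted as positive control.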
Potency is read from the fitted curve at half-maximal effect; tags tell the direction and shape of the fitted curve.

Potency, inconclusive:
CCOC(=O)c1csc(-c2sccc2Br)n1 50.1 µM [inhibitor, single point]
Nn1c(SCC(=O)N2CCN(S(=O)(=O)c3ccc(Cl)cc3)CC2)nnc1-c1cccs1 8.91 µM [inhibitor, partial curve]
CC1CCCC(C)N1C(=O)COc1ccc(F)cc1 (stereo unspecified) 17.8 µM [inhibitor, partial curve]
Cc1cc(C)cc(NC(=S)NCc2cccn2C)c1 25.1 µM [inhibitor, partial curve]
COc1ccccc1-c1nn2c(C3COc4ccccc4O3)nnc2s1 (stereo unspecified) 3.55 µM [inhibitor, full curve, poor fit]
O=C(Nc1ccccc1)N(CCCN1CCOCC1)Cc1cccs1 39.8 µM [inhibitor, partial curve]
COc1cc(-c2cc(OC)c3c(C)oc(C)c3c(=O)c2)ccc1O 39.8 µM [inhibitor, single point]
O=C(NCC1CCCO1)c1onc(CSc2cccc3ccccc23)c1C(=O)O (stereo unspecified) 35.5 µM [inhibitor, single point]
Cc1nnc(SCC(=O)NC2CCCCCC2)n1C(C)C 20 µM [inhibitor, partial curve]
COc1ccccc1N1C(=O)N(C(C)=O)C2C1Nc1ccccc1N2C (stereo unspecified) 15.8 µM [inhibitor, partial curve, poor fit]
O=S(=O)(Nc1ccc(N2CCCCC2)cc1)c1ccc(F)c(F)c1 28.2 µM [inhibitor, partial curve]
CCN(CC)C(=O)c1csc(Nc2ccc(C)cc2)n1 35.5 µM [inhibitor, partial curve]
CCOC(=O)c1oc2c(c1C)-c1nn(Cc3c(F)cccc3Cl)cc1CC2 22.4 µM [inhibitor, partial curve]
O/N=C/c1cc(Br)cc(Br)c1OCc1ccccc1 31.6 µM [inhibitor, partial curve]

Potency, inactive:
COc1ccc(CC(=O)n2[nH]c(=O)c3ccccc3c2=O)cc1OC
CCOc1ccc(OCC)c(NC(=O)Cn2nc(CC)n3c(cc4sccc43)c2=O)c1
CCC(=O)c1ccccc1OCCN1CCN(Cc2ccccc2)CC1
CCCCn1c(-c2csc(CC)c2)n[nH]c1=S
Cc1noc(C)c1-c1ccc2ncnc(NCc3cccn3C)c2c1
Cc1c2ccccc2nc2c(F)c(NCCO)c(F)c(F)c12
CCOCCCN1C(=O)c2[nH]nc(-c3ccccc3O)c2C1c1ccc(CC)cc1 (stereo unspecified)
